Laboratory results as given in PubChem BioAssay AID1468 (National Center for Advancing Translational Sciences (NCATS), 2008).
Among all 280,000 compounds or so, about 1,100 (0.39%) were called active. The inconclusive results got no clear call from the source; some entries with a clear call stand among them for comparison. Calls come from the whole dose curve; as a rule, active = well fitted inhibition curve with a large enough effect; inconclusive = small, poorly fitted or top-dose-only effect, or effect the other way; inactive = flat fitted curve, though single readings scatter. Potencies of inconclusive entries are left out as doubtful fits.

Biological target: Microtubule-associated protein tau (Homo sapiens) (UniProt P10636)
Sequence of UniProt P10636 (P10636 whole entry, looked up): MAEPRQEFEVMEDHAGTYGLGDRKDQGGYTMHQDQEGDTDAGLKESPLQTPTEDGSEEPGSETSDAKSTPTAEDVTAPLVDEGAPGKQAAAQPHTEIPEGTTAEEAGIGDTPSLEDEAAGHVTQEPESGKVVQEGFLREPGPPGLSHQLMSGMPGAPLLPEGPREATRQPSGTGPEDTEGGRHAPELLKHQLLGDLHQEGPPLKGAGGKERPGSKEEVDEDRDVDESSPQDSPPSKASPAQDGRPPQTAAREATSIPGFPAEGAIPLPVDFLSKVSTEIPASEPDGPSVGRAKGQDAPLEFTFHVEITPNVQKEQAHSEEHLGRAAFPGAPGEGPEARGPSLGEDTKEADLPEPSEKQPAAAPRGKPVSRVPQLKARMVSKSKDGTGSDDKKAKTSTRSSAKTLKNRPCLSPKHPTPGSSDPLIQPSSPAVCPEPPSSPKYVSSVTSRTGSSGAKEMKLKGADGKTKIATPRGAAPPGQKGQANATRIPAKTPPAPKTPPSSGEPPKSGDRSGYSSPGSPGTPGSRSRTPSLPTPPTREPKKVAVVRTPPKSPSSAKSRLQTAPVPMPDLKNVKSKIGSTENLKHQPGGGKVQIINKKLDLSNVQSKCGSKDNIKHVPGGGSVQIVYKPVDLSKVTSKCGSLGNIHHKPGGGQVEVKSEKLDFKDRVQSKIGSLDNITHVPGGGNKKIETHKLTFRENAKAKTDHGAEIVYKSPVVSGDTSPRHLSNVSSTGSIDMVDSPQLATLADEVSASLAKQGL
Assay: qHTS for Inhibitors of Tau Fibril Formation, Fluorescence Polarization; note: nearly all actives have a fitted effect of over 55% in size
Conditions: K18 P301L tau heparin fibrillization, Alexa594 FP, 6 h; series mostly up to 57.7 µM
Method in brief: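 Recombinant K18 P301L […], labeled with Alexa 594 at 0.24 uM over 15 uM unlabeled; heparin inducer 20 uM final; 37 C, 6 hr; FP endpoint.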
Potency is the fitted concentration of half-maximal effect; tags give direction and shape of the fitted curve.

SMILES | Potency
O=C(Cn1cc(C(=O)C(F)(F)F)c2ccccc21)N1CCCCCC1 | inactive
O=c1[nH]c(CN(CCO)CCO)nc2c1C1(CCCCC1)Cc1ccccc1-2 | inactive
Cc1ccc(Cl)cc1NC(=O)CSc1nc2ccccc2c2nc(-c3ccccc3)nn12 | inactive
CCOc1ccc(C(=O)Nc2cc(-c3nc4cc(OC)ccc4o3)ccc2C)cc1[N+](=O)[O-] | inconclusive [inhibitor, partial curve, poor fit]
Cc1ccc(S(=O)(=O)c2cn(CC(=O)Nc3cccc(Cl)c3)c3ccccc3c2=O)cc1 | inconclusive [inhibitor, partial curve, poor fit]
COc1ccc(C(=O)Nc2nc(-c3cccs3)cs2)cc1 | inconclusive [inhibitor, single point]
O=C(O)c1cccc(C(=O)O)n1 | inactive
CCOc1ccc2c(c1)c(=O)c(C(=O)c1ccc(CC)cc1)cn2CC(=O)Nc1ccccc1OC | inconclusive [inhibitor, partial curve]
C#Cc1ccc([C@H]2C=C(C(=O)NC3CC3)O[C@@H](OCC)[C@@H]2CCCO)cc1 | inconclusive [activator, single point]
COc1ccc(OC)c(NC(=O)Cn2c(=O)c3cccn3c3ccccc32)c1 | active: 3.16 µM
CCn1c(=O)n(-c2ccc3c(c2)OCO3)c2nc(-c3ccc(C(C)C)cc3)nc(C(N)=O)c21 | inconclusive [inhibitor, partial curve]
O=C(Nc1cccc(Cl)c1)C1CCCN(c2nn3cc(-c4ccc(F)cc4)nc3s2)C1 (stereo unspecified) | inconclusive [inhibitor, partial curve]
COc1cccc(NC(=O)c2oc3ccccc3c2NC(=O)c2ccc(F)c(F)c2)c1 | inconclusive [inhibitor, full curve]
CCCCNc1nc2ccccc2n1CC(=O)Nc1c(C)cccc1CC | inactive
Cc1nc(-c2ccc(S(=O)(=O)Oc3ccc(Cl)cc3Cl)s2)cs1 | inconclusive [inhibitor, partial curve, poor fit]
COc1cc(OC)cc(C(=O)NC2CCN(Cc3nnnn3Cc3cccs3)CC2)c1 | inactive
CCOC(=O)C1=C(C)NC(=O)CC1c1cc2c(cc1[N+](=O)[O-])OCO2 (stereo unspecified) | inconclusive [inhibitor, single point]
COC(=O)/C(=C(/F)Sc1cc(C)c(O)c(C)c1)C(F)(F)F | inconclusive [inhibitor, partial curve, poor fit]
COc1ccc(N=Cc2sc(O)c3ccccc23)cc1 | inconclusive [activator, full curve, poor fit]
O=C(O)CCCN1C(=O)/C(=C\c2ccco2)SC1=S | inconclusive [inhibitor, partial curve, poor fit]
Cc1c(Cl)cnc(NC(=O)COC(=O)c2nn(C)c(=O)c3ccccc23)c1Cl | inactive
COc1cccc(-c2cc(C(=O)NCCCn3ccnc3)c3ccccc3n2)c1 | inactive
CC(C)c1cc(Nc2cccc(O)c2)cc(C(C)C)c1O | inconclusive [inhibitor, single point]
CN1CCc2c(C#N)c(N3CCOCC3)nc(NCC3CCCO3)c2C1 (stereo unspecified) | inconclusive [inhibitor, full curve, poor fit]

SMILES | Potency
CCn1c(=O)c(=O)n(CC)c2cc(S(=O)(=O)Nc3cccc(OC)c3)ccc21 | inactive
O=C(Cc1cccs1)Nc1c(C(=O)Nc2ccc(F)cc2)oc2ccccc12 | inactive
COc1cc(/C=C(\C#N)c2nc3ccccc3[nH]2)ccc1OCc1ccccc1F | inconclusive [inhibitor, partial curve, poor fit]
C/C(=C\C(=O)c1ccc(Br)cc1)Nc1ccc(Cl)cc1 | inactive
CCOC(=O)C1CCN(C(=O)CSc2cc(=O)n(C)c3ccccc23)CC1 | inconclusive [activator, full curve, poor fit]
COc1ccc(-n2c(SCC(N)=O)nc3c(oc4ccccc43)c2=O)cc1 | inactive
CN(c1ccc(OCC(=O)OCC(=O)Nc2c(F)c(F)c(F)c(F)c2F)cc1)S(=O)(=O)c1ccc(F)cc1 | inactive
Cc1ccc(C)c(NC(=S)NC(NC(=O)Cc2cccc3ccccc23)C(Cl)(Cl)Cl)c1 (stereo unspecified) | inconclusive [inhibitor, full curve, poor fit]
Oc1[nH]c2c(Cl)cc(Cl)cc2c1N=NC(=S)NCC1CCCO1 (stereo unspecified) | inconclusive [activator, partial curve]
CCCSc1nc(O)c(C(c2ccc(OC)c(O)c2)c2c(O)nc(SCCC)n(C)c2=O)c(=O)n1C | inconclusive [inhibitor, full curve]
Cc1cnc(NC(=O)CSc2nc3ccccc3c(=O)[nH]2)s1 | inactive
COc1ccc(/C=C/C(=O)Nc2ccc(-n3nncc3-c3ccc(OC)c(OC)c3)cc2)cc1OC | inconclusive [inhibitor, partial curve]
C=C(C)COc1ccc(-c2[nH]ncc2Oc2cccc(OC)c2)c(O)c1 | inconclusive [inhibitor, partial curve]
COc1ccc(S(=O)(=O)Nc2ccc(S(=O)(=O)N3CCCC3)cc2)cc1 | inconclusive [inhibitor, single point]
CCc1c(-c2n[nH]c(=S)n2Cc2ccccc2)csc1C | inactive
C=C(C)COc1ccc(-c2[nH]ncc2-c2ccccc2)c(O)c1 | inactive
Cc1ccc(C=C2C(=O)c3ccccc3C2=O)o1 | inconclusive [activator, single point]
CC(=O)c1cn(CCCCCCCCCCn2cc(C(C)=O)c(=O)[nH]c2=O)c(=O)[nH]c1=O | inconclusive [inhibitor, partial curve, poor fit]
CN1CCN(C(=O)C(=O)Nc2c3c(nn2-c2ccc(Cl)cc2)CSC3)CC1 | inactive
CN=C1SC(CC(=O)Nc2ccc(F)cc2F)C(=O)N1/N=C/c1ccc(OC(F)F)c(OC)c1 (stereo unspecified) | inconclusive [inhibitor, partial curve, poor fit]
CCN(c1ccc(NC(=O)COC(=O)/C=C/c2cccs2)cc1)C(C)C | inconclusive [activator, partial curve]
O=C(Nc1nc(-c2nc3ccccc3s2)cs1)C1CC1 | inactive
COC(=O)c1ccc(C(=S)N2CCCCC2)cc1 | inactive
CCCc1nc2ccc(NC(=O)NCCC(=O)OCC)cc2c(=O)n1Cc1cccc(Cl)c1 | inconclusive [inhibitor, partial curve]

SMILES | Potency
O=S(=O)(c1ccc2nc(SCc3cccc(Cl)c3)[nH]c2c1)N1CCOCC1 | inconclusive [inhibitor, partial curve]
Cc1ccc(C(=O)Oc2csc(=S)n2C(=O)c2ccc(C)cc2)cc1 | inconclusive [inhibitor, partial curve]
C=CCN1C(=O)/C(=C/c2ccc(O)cc2)S/C1=N/c1nccs1 | inconclusive [inhibitor, partial curve]
O=C(O)c1ccc(/C=N\Nc2ccc(S(=O)(=O)N3CCOCC3)cc2[N+](=O)[O-])cc1 | inactive
Fc1ccc(/C=C2\CCCC3=C2NC(=S)NC3c2ccc(F)cc2)cc1 (stereo unspecified) | inconclusive [inhibitor, single point]
CCOCCCNS(=O)(=O)c1ccc(OC)c(Cl)c1Cl | inactive
CN(C)S(=O)(=O)c1cccc(NC(=O)COC(=O)CCc2nc3ccccc3s2)c1 | inactive
CCOC(=O)C1(CCc2ccccc2)CCN(C(=O)C2CCOCC2)CC1 | inactive
COc1ccc(C(=O)NCCn2cc(SCc3c(F)cccc3Cl)c3ccccc32)cc1 | inconclusive [inhibitor, single point]
COCCCNC(=O)CCCOc1ccccc1 | inactive
N#CCc1nn(-c2ccc(F)cc2)c(N)c1C#N | inconclusive [inhibitor, single point]
CCc1ccc(C2(O)CC(C(F)(F)F)=NN2C(=O)Cc2ccc([N+](=O)[O-])cc2)cc1 (stereo unspecified) | inactive
COc1ccc(NC(=O)c2nc(S(C)(=O)=O)ncc2N(Cc2ccc(C)cc2)Cc2ccco2)cc1Cl | inconclusive [inhibitor, partial curve, poor fit]
O=C(Nc1nccs1)c1ccc(-c2ccc(Cl)cc2)o1 | inconclusive [inhibitor, single point]
COC(=O)Cc1ccc(NC(=S)N2CCN(c3cccc(O)c3)CC2)cc1 | inconclusive [activator, single point]
Cc1[nH]nc(S(=O)CC(=O)O)c1[N+](=O)[O-] (stereo unspecified) | inconclusive [inhibitor, partial curve, poor fit]
Cc1ccc(OCc2nc(-c3ccc(Cl)cc3)n[nH]2)cc1 | inactive
O=C(CSc1nnc(-c2ccncc2)n1CCc1ccccc1)NCc1ccccc1 | inconclusive [inhibitor, single point]
COCCN=C1Sc2nc3cc(C)c(C)cc3cc2CN1Cc1cccs1 | inactive
CN(C)CCSc1nc(N)c2c3c(sc2n1)CN(C)CC3 | inconclusive [inhibitor, single point]
CN(C)/C=N/c1c(C#N)nnn1Cc1ccccc1 | inactive
Cn1ccc(=S)c2ccccc21 | inactive
Cc1cccc(NC(=O)CSc2nc3ccc(NC(=O)COc4ccccc4C)cc3s2)c1 | inconclusive [inhibitor, partial curve]
